Data from PubChem BioAssay AID1347165 (National Center for Advancing Translational Sciences (NCATS), 2019).
Among all 220,000 compounds or so, about 5,700 (2.6%) were called active. Inconclusive results, whose numbers are uncertain, are shown with a selection of clear calls. Calls follow the shape of the dose curve; as a rule, active = well fitted inhibition curve with a large enough effect; inconclusive = small, poorly fitted or top-dose-only effect; inactive = no such curve, though single readings can be large or run the other way. Potencies of inconclusive entries are doubtful fits and often do not repeat.

What follows are molecules tested against Lysine-specific demethylase 5B (Homo sapiens) (UniProt Q9UGL1) (assay: Primary screen for KDM5B Histone Demethylases FDH-coupled qHTS). Conditions: FDH-coupled NADH fluorescence (FDH is formaldehyde dehydrogenase); activity change, negative = inhibition: at 57.7 µM (top of the series) unless noted.
UniProt Q9UGL1, sequence (Q9UGL1 whole entry, looked up, the tested form may be a part): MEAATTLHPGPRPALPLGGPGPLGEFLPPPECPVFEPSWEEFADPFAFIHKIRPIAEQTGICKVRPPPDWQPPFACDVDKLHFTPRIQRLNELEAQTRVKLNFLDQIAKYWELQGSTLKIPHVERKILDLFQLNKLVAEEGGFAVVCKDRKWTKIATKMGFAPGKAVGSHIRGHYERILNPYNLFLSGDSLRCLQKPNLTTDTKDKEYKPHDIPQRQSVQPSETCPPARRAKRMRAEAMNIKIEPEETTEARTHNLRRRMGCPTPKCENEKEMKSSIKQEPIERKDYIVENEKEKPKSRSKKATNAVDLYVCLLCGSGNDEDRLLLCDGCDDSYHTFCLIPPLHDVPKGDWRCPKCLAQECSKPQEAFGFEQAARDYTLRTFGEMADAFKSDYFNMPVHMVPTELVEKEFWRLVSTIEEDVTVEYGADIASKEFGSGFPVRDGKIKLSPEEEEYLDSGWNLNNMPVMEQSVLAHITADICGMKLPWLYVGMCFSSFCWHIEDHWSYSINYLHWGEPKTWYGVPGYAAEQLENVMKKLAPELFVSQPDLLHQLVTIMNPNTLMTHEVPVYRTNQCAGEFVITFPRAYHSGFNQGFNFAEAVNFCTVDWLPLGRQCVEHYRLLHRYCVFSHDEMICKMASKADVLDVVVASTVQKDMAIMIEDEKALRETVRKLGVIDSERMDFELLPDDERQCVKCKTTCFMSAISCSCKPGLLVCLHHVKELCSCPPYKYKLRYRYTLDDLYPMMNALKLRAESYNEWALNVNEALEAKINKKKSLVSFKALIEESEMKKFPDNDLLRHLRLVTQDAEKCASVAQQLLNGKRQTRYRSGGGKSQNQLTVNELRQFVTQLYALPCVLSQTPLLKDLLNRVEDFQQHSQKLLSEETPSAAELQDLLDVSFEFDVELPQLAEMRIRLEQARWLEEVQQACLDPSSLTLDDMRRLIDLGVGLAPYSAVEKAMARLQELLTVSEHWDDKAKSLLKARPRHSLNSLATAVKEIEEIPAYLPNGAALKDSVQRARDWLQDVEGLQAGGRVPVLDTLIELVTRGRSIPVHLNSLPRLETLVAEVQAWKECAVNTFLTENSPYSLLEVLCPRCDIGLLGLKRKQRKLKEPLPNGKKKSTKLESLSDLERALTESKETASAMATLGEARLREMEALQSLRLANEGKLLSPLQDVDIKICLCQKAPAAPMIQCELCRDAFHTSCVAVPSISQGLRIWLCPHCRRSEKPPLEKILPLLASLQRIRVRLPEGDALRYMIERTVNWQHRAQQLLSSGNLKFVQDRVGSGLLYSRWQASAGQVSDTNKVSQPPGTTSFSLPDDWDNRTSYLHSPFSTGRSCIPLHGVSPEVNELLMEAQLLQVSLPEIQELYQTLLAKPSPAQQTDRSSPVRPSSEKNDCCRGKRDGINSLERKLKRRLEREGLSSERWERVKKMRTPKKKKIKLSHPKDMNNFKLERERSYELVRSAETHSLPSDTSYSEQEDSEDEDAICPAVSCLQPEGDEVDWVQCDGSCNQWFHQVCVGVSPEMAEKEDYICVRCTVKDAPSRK
In short: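 Inhibition is measured as reduced NADH fluorescence generation from FDH coupling to formaldehyde release. Truncated KDM5BΔAP at 200 nM final acts on H3K4me3 peptide (12.5 µM in substrate mix) in pH 7.5 HEPES buffer with Tween-20, 30 min, room temperature.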
Also: nearly all actives have a fitted effect of over 70% in size.
For activity change, negative = inhibition in this document: 0% is about no effect.
Potency is read from the fitted curve at half-maximal effect; tags tell the direction and shape of the fitted curve.

Compound | activity change, negative = inhibition | Potency
CCN1CCCC12Cc1ccccc1CN(C(=O)c1c(C)noc1C)C2 (stereo unspecified) | inactive: -17.5% [at 115 µM] | –
CC(C)N1CCN(C(=O)[C@@]23CCCC[C@H]2N(C)C(=O)CC3)CC1 | inactive: -1.17% | –
O=C(NCc1cccs1)c1c[nH]c2ncccc12 | inactive: 23.4% [at 86.2 µM] | –
O=C(NCC1Cn2cccc2CN1Cc1ccccc1)C1CC1 (stereo unspecified) | – | active: 28.2 µM
O=C(c1ccccc1F)N1CC(Oc2ccc(-c3nc(-c4ccccc4)no3)cc2)C1 | – | inconclusive: 3.98 µM [inhibitor, partial curve]
Cc1ccc(-c2nc3cccnc3s2)cc1NC(=O)C(C)C | – | inconclusive: 1.78 µM [inhibitor, full curve, poor fit]
Cc1ccc(-c2ccc(=O)n(Cc3cc(C)ccc3C)n2)cc1 | – | inconclusive: 28.2 µM [inhibitor, partial curve, poor fit]
O=C(O)c1ccc(CN2CCOC[C@H]2c2ncc(-c3ccc(F)cc3)[nH]2)cc1 | inactive: -3.7% [at 86.2 µM] | –
CNC(=O)c1cccc(-c2cnc(Nc3ccccc3)c3c2CCO3)c1 | – | active: 31.6 µM
COc1nccc(N2CCC(CC(=O)N3CCCN(c4ncccn4)CC3)CC2)n1 | – | inconclusive: 31.6 µM [inhibitor, partial curve, poor fit]
CN(C)CCNC(=O)c1ccc(-n2c(-c3ccccc3)cc3c2CCCC3)cc1 | – | inconclusive: 0.501 µM [inhibitor, partial curve, poor fit]
CCC(C)c1ccc2oc(-c3cccc(NC(=O)c4cccnc4)c3)nc2c1 (stereo unspecified) | inactive: 13.1% | –
COCc1nnc(NC(=O)c2ccc3c(ccn3Cc3ccccc3)c2)s1 | – | inconclusive: 31.6 µM [inhibitor, single point]
COc1ccc(NC(=O)Cn2c(=O)oc3cc(S(=O)(=O)NC4CCCC4)ccc32)cc1OC | – | inconclusive: 39.8 µM [inhibitor, single point]
CCN(C(=O)c1cccc(Br)c1)C1CC1 | inactive: 5.4% | –
CC(C(=O)N1CCNC1=O)N(C)Cc1ccccc1Cl (stereo unspecified) | inactive: 11% | –
Cc1ccc(NC(=S)NCCC(c2ccccc2)c2ccccc2)cc1 | inactive: -17% | –
CC(=O)Oc1cc(C(=O)OCC(=O)NC23CC4CC(CC(C4)C2)C3)cc(OC(C)=O)c1OC(C)=O | – | inconclusive: 25.1 µM [inhibitor, partial curve, poor fit]

Compound | activity change, negative = inhibition | Potency
CCOC(=O)c1c(NC(=O)CS(=O)(=O)c2ccc(C)cc2)sc2c1CCCCC2 | – | inconclusive: 5.01 µM [inhibitor, partial curve, poor fit]
CCOc1cc(/C=C(\C(=O)O)c2ccc(S(=O)(=O)N3CCCC3)s2)ccc1OC | – | inconclusive: 39.8 µM [inhibitor, partial curve, poor fit]
CC(C)OCCCNc1nc2c([S+](=O)([O-])c3ccc(Cl)cc3)nnn2c2ccccc12 | – | inconclusive: 89.1 µM [inhibitor, single point]
Cc1ccc(NCc2cccn2-c2nnc(N3CCC(C(=O)NC(C)C)CC3)s2)cc1 | – | inconclusive: 7.94 µM [inhibitor, partial curve, poor fit]
CCn1c(C(=O)OC)c(NC(C)=O)c2cc(NC(C)Cc3ccccc3OC)cnc21 (stereo unspecified) | – | inconclusive: 14.1 µM [inhibitor, partial curve]
Cc1ccc(-c2ccc3nnc(CNC(=O)Cc4cccc(F)c4)n3n2)cc1 | – | inconclusive: 2.82 µM [inhibitor, partial curve, poor fit]
COCCOC1CCOC2(CCN(C(=O)COc3ccc(F)cc3)CC2)C1 (stereo unspecified) | inactive: 0.24% | –
CN(Cc1nccn1C)C(=O)c1cc(CN2CCC(Cc3ccccc3)CC2)on1 | inactive: -7.68% | –
CC(C)Oc1ccc(CNC(=O)CCCn2c(=O)c3cccn3c3ccccc32)cc1 | – | inconclusive: 3.16 µM [inhibitor, partial curve, poor fit]
CCCS(=O)(=O)Nc1cc(-c2cn3cccc(C)c3n2)ccc1C | – | inconclusive: 28.2 µM [inhibitor, partial curve, poor fit]
COc1cccc(C(=O)NCCSc2c(-c3ccc(F)cc3)[nH]c3ccccc23)c1OC | – | inconclusive: 28.2 µM [inhibitor, partial curve, poor fit]
COCC1CN(C(C)=O)CC12CCN(C(=O)NCc1ccco1)CC2 (stereo unspecified) | – | inconclusive: 14.1 µM [inhibitor, partial curve, poor fit]
CC(C)(C)C(=O)N1N=C(c2ccc3c(c2)OCO3)CC1c1ccc2nccnc2c1 (stereo unspecified) | inactive: 19.2% | –
Cn1cc(C(=O)NCC2CN(CCCc3ccccc3)CC23CN(c2ccccc2)C3)cn1 (stereo unspecified) | – | inconclusive: 39.8 µM [inhibitor, single point]
CCOC(=O)CNC(=O)Nc1cc(C(=O)NCc2ccc(C)cc2)ccc1N1CCCC1 | inactive: -9.38% | –
O=C(NCC1CCCN(Cc2cccc(-c3ccco3)c2)C1)c1cccs1 (stereo unspecified) | – | inconclusive: 12.6 µM [inhibitor, partial curve, poor fit]
CCC(=O)c1c[nH]c2ccccc12 | inactive: -2.66% | –
O=C(NCC1CCS(=O)(=O)C1)N1CCc2nc(-c3ccccc3)[nH]c2C1 (stereo unspecified) | – | inconclusive: 12.6 µM [inhibitor, single point]
